The source of these data is publication PMC6919601, “Identification of Plasmodium dipeptidyl aminopeptidase allosteric inhibitors by high throughput screening” (PLoS ONE, 2019).

Structures are written as SMILES. Several values for one entry are separate records, joined by “and”; a condition that tells them apart may be missing. Identical values can stand only once. About 230 (0.21%) of roughly 110,000 compounds showed an effect of 50% or more. Some of the results follow.
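Note: 30 min substrate incubation versus DMSO and 10 µM JCP410 controls.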

DPAP1, sequence (Q8IIJ9 whole entry, looked up): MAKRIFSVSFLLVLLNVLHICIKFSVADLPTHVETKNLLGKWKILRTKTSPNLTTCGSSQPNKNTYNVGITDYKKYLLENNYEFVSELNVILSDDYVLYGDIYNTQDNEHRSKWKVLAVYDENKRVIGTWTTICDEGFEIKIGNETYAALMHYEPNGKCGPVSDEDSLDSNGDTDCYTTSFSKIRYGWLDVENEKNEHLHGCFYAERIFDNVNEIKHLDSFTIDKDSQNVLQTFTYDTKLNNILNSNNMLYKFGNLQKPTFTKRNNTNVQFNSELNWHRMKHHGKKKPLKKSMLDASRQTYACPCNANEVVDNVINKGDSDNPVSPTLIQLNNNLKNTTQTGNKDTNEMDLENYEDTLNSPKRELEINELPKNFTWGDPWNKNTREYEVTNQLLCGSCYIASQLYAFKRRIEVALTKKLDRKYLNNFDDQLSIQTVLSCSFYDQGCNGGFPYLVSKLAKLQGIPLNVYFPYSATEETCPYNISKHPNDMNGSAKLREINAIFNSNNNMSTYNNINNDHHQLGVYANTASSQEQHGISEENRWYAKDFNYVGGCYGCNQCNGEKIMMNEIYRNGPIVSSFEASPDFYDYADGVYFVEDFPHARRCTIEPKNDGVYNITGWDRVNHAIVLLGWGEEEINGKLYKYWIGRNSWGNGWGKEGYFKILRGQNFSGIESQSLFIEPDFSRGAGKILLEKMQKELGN

The target of the experiment is DPAP1 (Plasmodium falciparum, UniProt Q8IIJ9). In words: primary screen, percent inhibition; read by cleavage of a fluorogenic dipeptide substrate; higher = more effect of the substance. The arrangement: species or system P. falciparum D10 trophozoite lysates; single well. The protocol:
HTS was performed in black 384-well plates. The first and last two columns of each plate contained our negative (DMSO) and positive (10 μM JCP410) controls, and the 20 central columns the test compounds at 10 μM. Compounds were first diluted 50-fold into assay buffer (50 mM sodium acetate, 5 mM MgCl2, 10 mM β-mercaptoethanol, and 0.1% CHAPS, pH 5.5) from a 10 mM DMSO stock plates. One microliter of this 200 μM intermediate stock plate was dispensed into the assay plate. […] After 30 min, the reaction was quenched with 20 μL of 0.5 M acetic acid, and the fluorescent intensity measured at 523 nm (λex = 492 nm) using an Analyst HT multimode plate reader (Molecular Devices).
As to `COc1ccc(-c2nc3c4cnn(-c5ccc(OC)cc5)c4ncn3n2)cc1`, the “% Inhibition @ 10 uM” value is given as -2.85%.
As to `Cc1cccc(Oc2nc3c(C)cccn3c(=O)c2/C=C(\C#N)C(=O)NCCc2ccccc2)c1C`, the “% Inhibition @ 10 uM” value turned out to be 0.315%.
Take `Cc1ccc(/C=C2/SC(N3CCN(C)CC3)=NC2=O)cc1`: the “% Inhibition @ 10 uM” value stood at 3.72%.
The figure for `CCOc1ccc(NC(=O)/C(C#N)=C\c2cn(CC)c3ccccc23)cc1` is 5.2%; for `O=S(=O)(c1ccc(Cl)cc1)c1nc(-c2cccc(Br)c2)oc1N1CCOCC1` it is -4.93%.
The figure for `Cc1ccc(S(=O)(=O)/C(C#N)=C/c2c(Oc3ccc(Cl)c(C)c3)nc3ccccn3c2=O)cc1` is 17.7%; for `COC(=O)c1ccc(-c2nc(COc3cc(C)c(Cl)c(C)c3)no2)cc1` it is 0.758%.
As for `N#CCNC(=O)[C@H](Cc1nccs1)NC(=O)c1ccc(-c2ccccc2Cl)nc1`, the figure is -6.98%; as for `Cc1ccc2c(c1)-c1onc(C(=O)N3CCC4(CC3)OCCO4)c1CO2`, 0.0281%.
Take `CNC(=O)CN(c1ccc(F)cc1)S(=O)(=O)c1ccccc1`: the “% Inhibition @ 10 uM” value was -1.42%.
The figure for `CCOc1ccc(CNC(=O)CCC(=O)N2CCSc3ncccc32)cc1OC` is 0.882%.
As for `O=C(CCS(=O)(=O)Cc1ccc(Cl)cc1)NCc1ccc2c(c1)OCO2`, the figure is 3.79%.
As for `O=C(NCC1CCCO1)c1ccc(CNS(=O)(=O)c2cccc(C(F)(F)F)c2)cc1` (stereo not drawn), the figure is -1.55%; as for `COc1ccc(S(=O)(=O)CCO)cc1N`, -4.5%.
As for `Cc1cc(C)n(-c2nc(O)cc(-c3ccccc3)n2)n1`, the “% Inhibition @ 10 uM” value is reported as -6.01%.
The figure for `CCOCCCNC(=O)COc1ccc(Cl)cc1` is -3.53%.
As for `COc1ccc(C(=O)Nc2cccc(NC(=O)c3ccc(OC)cc3OC)n2)c(OC)c1`, the figure is 0.389%.
As for `Nn1c(SCc2ccccc2)nnc1C(F)(F)F`, the figure is -3.41%; as for `CC1(C)CC(=O)c2sc3nc(-c4ccc(Cl)cc4)cn3c2C1`, -1.36%.
Turning to `CC1=C(C(=O)OCCOC(C)C)C(c2ccccc2C)CC(=O)N1` (stereo not drawn), the “% Inhibition @ 10 uM” value is -6.14%.
The figure for `Cc1c(C(=O)NCC(C)c2ccccc2)oc2c1-c1n[nH]cc1CC2` (stereo not drawn) is 5.42%; for `Cc1ccccc1C(=O)c1cccn1CC(=O)N1CC(C)CC(C)C1` (stereo not drawn) it is -5.89%.
As for `CCC(C)Sc1nc(O)cc(=O)n1-c1ccccc1` (stereo not drawn), the figure is 1.83%; as for `COC(=O)c1cc(S(=O)(=O)N2CC=C(c3ccccc3)CC2)c[nH]1`, 2.81%.
The figure for `Cc1cc(OCC(=O)N2CCN(c3ccccn3)CC2)ccc1Br` is 3.66%; for `CCn1c(C(=O)O)c(C=O)c2ccccc21` it is 1.63%; for `CCOC(=O)c1cc(-c2ccc(OC)c(S(=O)(=O)NCCN(C)C)c2)on1` it is 0.92%.
Turning to `CCCCN1C(C)=CC(=C2C(=O)NC(=O)NC2=O)C=C1C(F)(F)F`, the “% Inhibition @ 10 uM” value was determined as 21.7%.
As for `O=C(O)c1cnc2ncnn2c1O`, the figure is 4.58%.
As for `CC1=C(C)CC2C(=O)N(Cc3ccccc3)C(=O)C2C1` (stereo not drawn), the “% Inhibition @ 10 uM” value was found to be 3.53%.
As for `CCCCO/C(O)=C1\C(C)=NC2=C(C(=O)CCC2)C1c1ccc(OC)c(OC)c1OC` (stereo not drawn), the figure is 16.8%; as for `Cc1ccccc1-n1c(=O)[nH]c(O)c(C2NCCc3ccccc32)c1=O` (stereo not drawn), -3.85%; as for `COCCCn1c2c(c(=O)[nH]c1=O)C(c1ccc(Cl)cc1Cl)C1=C(O)c3ccccc3C1=N2` (stereo not drawn), 2.25%.
As for `CC1CN(c2ccc([N+](=O)[O-])c(N3CCOCC3)c2)CCN1` (stereo not drawn), the figure is -4.8%; as for `O=c1/c(=C/C=C/c2ccccc2)sc2nc3ccccc3n12`, 4.95% and -4.01%; as for `CCn1c(CCc2ccccc2)nnc1SCc1nc(-c2ccc(OC)cc2)no1`, -10.1%.
For the molecule `CN1C(=O)C(=C(NCc2ccccc2)c2ccccc2)C(=O)N(C)C1=O`, the “% Inhibition @ 10 uM” value is -0.522%.
Consider `COc1ccc(Cl)cc1S(=O)(=O)Oc1ccc2ccccc2c1`, for which the “% Inhibition @ 10 uM” value is on record as 1.67%.
`COc1cc(/C=C2/N=C(C3CCCCC3)OC2=O)cc(OC)c1OC`: the “% Inhibition @ 10 uM” value came to 10.7%.
With `CCOc1cc(CN2C[C@@H]3C[C@H](C2)c2cccc(=O)n2C3)ccc1OC`, the “% Inhibition @ 10 uM” value is listed as -2.48%.
The figure for `O=C(NC(=O)c1c(F)cccc1F)Nc1ccc(Cl)cc1` is 1.48%; for `C/C=C/C=C/C(=O)Nc1ccc2nc(SC)sc2c1` it is 18.3%; for `COc1cc(/C=C2\SC(=S)N(CC(=O)O)C2=O)ccc1O` it is -6.09%.
As for `Cc1[nH]c2ccc(C(=O)N3CCc4ccccc4C3)cc2c1C`, the “% Inhibition @ 10 uM” value was determined as 4.92%.
As for `CCOC(=O)N1CCN(C(=O)c2ccc(CSc3nc4ccncc4[nH]3)cc2)CC1`, the figure is 3.4%.
For the molecule `COc1ccccc1-c1c(C)nn2c(SCC(=O)NCc3ccccn3)cc(C)nc12`, the “% Inhibition @ 10 uM” value was -5.55%.
Consider `CCCn1c2ccccc2c2cc(C(=O)O)ccc21`, for which the “% Inhibition @ 10 uM” value came out at 3.87%.
As for `COc1ccc(-c2csc(N3C(=N)SCC3=O)n2)cc1`, the figure is 0.161%; as for `COc1ccc(-c2csc(Nc3cccnc3)n2)cc1`, 7.97%; as for `Cc1ccc(Cl)cc1N1CCN(C(=O)c2ccccc2CC(=O)O)CC1`, 0.528%.
The figure for `NC(=O)COc1ccc(/C=C2\S/C(=N/c3ccccc3)N(C3CCCC3)C2=O)cc1` is 5.39%; for `Cc1sc(NC(=O)c2ccc(C(C)(C)C)cc2)c(C(N)=O)c1C` it is 3.72%.
In the case of `O=c1oc2ccccc2c(O)c1CN1CCCC1`, the “% Inhibition @ 10 uM” value was -5.41%.
With `CC(C)Cn1cnc2sc3c(c2c1=N)CCCCC3`, the “% Inhibition @ 10 uM” value turned out to be 0.755%.
As for `O=C(NC1CCSC1=O)c1ccc(Cl)cc1` (stereo not drawn), the figure is 1.91%; as for `Cc1ccc(C(=O)CC2(O)C(=O)Nc3ccc(Br)cc32)cc1` (stereo not drawn), -3.83%; as for `Cc1ccccc1Cn1c(C(=O)O)c(CNCCN2CCOCC2)c2ccccc21`, -1.44%.
The figure for `CN1C2=C(C(=O)CC(C)(C)C2)C(c2cc(Cl)ccc2O)C2=C1CC(C)(C)CC2=O` is 5.09%.
With `c1cc2[nH]ncc2cc1NCC1CCCCC1`, the “% Inhibition @ 10 uM” value was found to be 0.217%.
As for `Cc1c(NC(=O)c2cc3ccccc3oc2=O)c(=O)n(-c2ccccc2)n1C`, the figure is 4.6%; as for `COc1cccc(C2CC3=Nc4ccccc4NC(c4cccs4)C3=C(O)C2)c1` (stereo not drawn), 0.851%; as for `COc1cc(C2CC(=O)N3CN(Cc4ccco4)CSC3=C2C#N)ccc1O` (stereo not drawn), 17.5%.
In the case of `CCC(C)N1C(=O)S/C(=C/c2ccc(C(=O)O)cc2)C1=O` (stereo not drawn), the “% Inhibition @ 10 uM” value came out at 1.31%.
